Measurements published in PubChem BioAssay AID652104 (National Center for Advancing Translational Sciences (NCATS), 2013).
Screen size: about 410,000 compounds; about 7,200 (1.8%) were called active. The inconclusive results got no clear call from the source; some entries with a clear call stand among them for comparison. Calls come from the whole dose curve; as a rule, active = well fitted activation curve with a large enough effect; inconclusive = small, poorly fitted or top-dose-only effect, or another doubt; inactive = no such curve, though single readings can be large or run the other way. No potency is given beside an inconclusive call; the fits are too rough.

Experiment: qHTS of TDP-43 Inhibitors; note: nearly all actives have a fitted effect of over 50% in size; for growth rescue (activation): % of control where 0% means no effect
Conditions: TDP-43 expressing yeast growth rescue, BacTiter-Glo, 24 h; growth rescue (activation): at 46.1 µM (top of the series) unless noted
Method in brief: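 Readout is BacTiter-Glo luminescence of cell growth, so inhibitors register as activators. TDP-43-expressing yeast at OD600=0.02 in galactose medium, after raffinose pregrowth to mid-log, were incubated with compound for 24 hr at 30 deg C.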
Potency is the fitted concentration of half-maximal effect; tags give direction and shape of the fitted curve.

SMILES | Potency | growth rescue (activation)
CCOC(=O)c1sc(N)c(C(=O)OC)c1C | inconclusive [activator, partial curve] | –
Cc1ccc(NC(=O)c2ccc(C)c(S(=O)(=O)N3CCCCCC3)c2)cc1 | active: 17.8 µM | –
COc1ccc(NC(=O)CNc2cc(C)ccc2C)cc1S(=O)(=O)N1CCOCC1 | – | inactive: 9.48%
Nc1c(Cl)cc(-c2csc(N3CCCC3c3nc4cc(Cl)c(N5CCCCC5)cc4n3CCOCCO)n2)cc1Cl (stereo unspecified) | inconclusive [activator, single point] | –
CCOc1cc(/C=C2\N=C(SC(C)C(N)=O)N(c3ccc(OC(F)F)cc3)C2=O)ccc1O (stereo unspecified) | inconclusive [activator, single point] | –
c1ccc(-c2cccc(-c3ccccn3)n2)nc1 | – | inconclusive: -75.1% [activator]
COC(=O)c1c(-c2ccc(OC)cc2)sc2ccc(OC)cc12 | – | inactive: 21.9%
COc1ccc(OC)c(Nc2ncnc3sccc23)c1 | – | inactive: 14.4%
COc1cccc(OC)c1C(=O)OCC(=O)Nc1ccc(OC(F)(F)F)cc1 | active: 14.1 µM | –
CCCCCSc1nnc2c(n1)OC(c1cccn1C)N(C(C)=O)c1ccccc1-2 (stereo unspecified) | inconclusive [activator, single point] | –
O=[N+]([O-])c1nn(-c2ccccc2)n(O)c1=NCCc1ccccc1 | active: 7.08 µM | –
Cc1nn(C)c(C(=O)Nc2ccn(Cc3c(F)c(F)cc(F)c3F)n2)c1[N+](=O)[O-] | active: 7.94 µM | –
COc1ccc(/C=C/C(=O)NCCCc2ccccc2)cc1OC | inconclusive [activator, partial curve] | –
CCOC(=O)[C@H]1[C@H]2COc3ccc(C)cc3[C@@H]2N2C(=O)c3ccc(F)cc3NC(=O)[C@@]12C | inconclusive [activator, partial curve, poor fit] | –
CC(C)c1ccc(NC(=O)c2ccc(CN3CC(=O)N4CCCCC4C3=O)cc2)cc1 (stereo unspecified) | – | inactive: 12.3%
CCc1ccc(C2CC(=O)Nc3c2c(=O)nc2c(C)cccn32)cc1 (stereo unspecified) | inconclusive [activator, partial curve] | –
N/C(=N\OC(=O)c1ccc2c(c1)OCO2)c1cccc(Br)c1 | active: 6.31 µM | –
CC(=O)Nc1ccc(-c2cc3ccccc3o2)cc1 | – | inactive: 24.2%
O=C(CCn1c(=O)c2ccccc2n(CC(=O)Nc2ccc(F)cc2)c1=O)NCCc1ccccc1 | inconclusive [activator, partial curve] | –
O=C(NCc1ccco1)c1cc2cc(Br)ccc2o1 | active: 22.4 µM | –
CC(=O)N1c2ccccc2N(Cc2ccc([N+](=O)[O-])cc2)C(=O)C1(C)C | inconclusive [activator, single point] | –
CCc1cnc2c(c1SC(C(C)=O)C(=O)N(C)C)c(=O)n(C)c(=O)n2C (stereo unspecified) | – | inactive: 8.72%
Cc1ccc(OCCCC(=O)Nc2nc3ccccc3[nH]2)cc1 | inconclusive [activator, full curve, poor fit] | –

SMILES | Potency | growth rescue (activation)
O=C(COC(=O)c1c(F)cccc1F)Nc1ccccc1OC(F)F | inconclusive [activator, partial curve] | –
NC(CCc1ccccc1)c1csc(NC(=O)NCC2CCCCC2)n1 (stereo unspecified) | inconclusive [activator, partial curve, poor fit] | –
S=C(NCCc1ccccc1)N1CCC2CC1c1cc(-c3ccc4c(c3)OCO4)ccc12 (stereo unspecified) | inconclusive [activator, partial curve] | –
COc1cccc(-c2nc(-c3ccc(NC(=O)c4ccncc4)cc3)no2)c1 | inconclusive [activator, full curve] | –
Cc1ccc(-n2c(=O)c3oc4ccccc4c3n(Cc3cccc(F)c3)c2=O)cc1C | – | inactive: 10.3%
COc1ccc(-c2csc(NC(=O)c3c(C)noc3C)n2)cc1F | inconclusive [activator, partial curve] | –
COc1cc(OC)c(C(=O)OCC(=O)NCCC2=CCCCC2)cc1OC | inconclusive [activator, partial curve] | –
CC(=NNC(=S)N1CC2CCC(CC2)C1)c1cnccn1 | – | inconclusive: -82.5% [activator]
O=C(Nc1nc2cc3c(cc2s1)OCCO3)C1CCCCC1 | active: 25.1 µM | –
Cc1cccc(OCCCC(=O)NNC(=O)c2ccccn2)c1 | active: 22.4 µM | –
COc1ccc(O)c(-c2cc(-c3ccccc3Cl)[nH]n2)c1 | active: 17.8 µM | –
CC(=O)n1cc(N(C(=O)CCl)c2ccc(C)cc2)c2ccccc21 | – | inactive: -12.9% [at 1.82 µM]
O=C(CS(=O)(=O)Cc1ccccc1)N1CCc2ccccc21 | inconclusive [activator, partial curve] | –
CCOc1ccc(C(=O)NCc2ccco2)cc1Cl | inconclusive [activator, partial curve] | –
N/C(=N\OC(=O)N1c2ccccc2Sc2ccccc21)c1ccc(Br)cc1 | – | inactive: 8.92%
Cc1nc([N+](=O)[O-])c(C(=O)OCc2ccccc2Br)n1C | – | inactive: 14.9% [at 9.22 µM]
Cc1ccccc1Cn1nnc(C(=O)Nc2cccc(C)c2C)c1N | inconclusive [activator, partial curve] | –
Cc1ccc(N(CC2=NCCN2)c2cccc(O)c2)cc1 | inconclusive [activator, full curve, poor fit] | –
CCOC(=O)c1c(NC(C)=O)c2c3c(sc2n1Cc1cc(C)ccc1C)CCCC3 | – | inactive: 21.7%
Cc1ccccc1CSc1ccc2nnc(-c3ccccn3)n2n1 | inconclusive [activator, partial curve] | –
O=C(CO/N=C/c1ccc(OC(F)F)cc1)NCc1ccc(F)cc1 | inconclusive [activator, partial curve] | –
Fc1ccc(N2CCN(c3ncnc4onc(-c5ccc(Cl)cc5)c34)CC2)cc1 | active: 17.8 µM | –
C[C@]12c3[nH]c4cc(-c5ccco5)ccc4c3CCN1C(=O)[C@@H](CC(=O)NCCCn1ccnc1)C[C@@H]2C(=O)N1CCCCC1 | inconclusive [activator, partial curve] | –
